Reference: the supplement of paper PMC4967469
The IC50 comes from the fitted curve, where viability falls to half of the control; a fit beyond the top or the lowest dose is shown as a bound at that dose. For AUC the same curve is integrated over the 256-fold range of doses and scaled to a fraction; the more sensitive the line, the further below 1. For part of these data: An inferred top dose is not printed in the source and was worked back from the curve model.

Key:
Experiment in all cases: Viability of human cancer cell lines after 72 h of drug (GDSC screen)
Mitomycin C = compound: CO[C@@]12[C@H](COC(N)=O)C3=C(C(=O)C(C)=C(N)C3=O)N1C[C@@H]1N[C@@H]12 [Mitomycin C]; conditions: top dose 16 µM
Method: (§1)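 Human cancer cell lines in 384-well plates, medium with 10% serum, drug for 72 h over a 256-fold dose range (nine 2-fold or five 4-fold steps up to the top dose). Adherent lines were fixed and stained with the nucleic acid dye Syto60, suspension lines read with resazurin; signal relative to control wells, capped at 0 and 100%. One two-parameter sigmoid per drug and line, fitted in a mixed model over all curves with the slope shared within a line.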

NVP-BHG712 = compound: Cc1ccc(C(=O)Nc2cccc(C(F)(F)F)c2)cc1Nc1nc(-c2cccnc2)nc2c1cnn2C [NVP-BHG712]; conditions: top dose 10.24 µM; top dose inferred
Method: as §1

Bosutinib = compound: COc1cc(Nc2c(C#N)cnc3cc(OCCCN4CCN(C)CC4)c(OC)cc23)c(Cl)cc1Cl [Bosutinib]; conditions: top dose 2 µM
Method: as §1

Midostaurin = compound: CO[C@@H]1[C@H](N(C)C(=O)c2ccccc2)C[C@H]2O[C@]1(C)n1c3ccccc3c3c4c(c5c6ccccc6n2c5c31)C(=O)NC4 [Midostaurin]; conditions: top dose 0.512 µM; top dose inferred
Method: as §1

IOX2 = compound: O=C(O)CNC(=O)c1c(O)c2ccccc2n(Cc2ccccc2)c1=O [IOX2]; conditions: top dose 0.1 µM; top dose inferred
Method: as §1

Cell Line | AUC (Mitomycin C) | IC50 (Mitomycin C) [nM] | AUC (NVP-BHG712) | IC50 (NVP-BHG712) [nM] | AUC (Bosutinib) | IC50 (Bosutinib) [nM] | AUC (Midostaurin) | IC50 (Midostaurin) [nM] | AUC (IOX2) | IC50 (IOX2) [nM]
SW982 (soft tissue, adherent) | 0.175 | 100 | 0.948 | > 10200 | 0.925 | > 2000 | 0.543 | 42 | 0.977 | > 100
UACC-893 (breast, adherent) | 0.414 | 537 | 0.897 | > 10200 | 0.947 | > 2000 | 0.982 | > 512 | 0.979 | > 100
RH-41 (rhabdomyosarcoma, adherent) | 0.615 | 1960 | 0.988 | > 10200 | 0.978 | > 2000 | 0.95 | > 512 | 0.99 | > 100
OVISE (ovary, adherent) | 0.695 | 4270 | 0.893 | > 10200 | 0.804 | 1410 | 0.968 | > 512 | 0.978 | > 100
NCI-H2347 (lung adenocarcinoma, adherent) | 0.481 | 875 | 0.916 | > 10200 | 0.983 | > 2000 | 0.937 | > 512 | 0.971 | > 100
SK-N-AS (neuroblastoma, adherent) | 0.545 | 1350 | 0.984 | > 10200 | 0.975 | > 2000 | 0.981 | > 512 | 0.967 | > 100
OE19 (oesophagus, adherent) | 0.362 | 394 | 0.986 | > 10200 | 0.969 | > 2000 | 0.96 | > 512 | 0.982 | > 100
KLE (endometrium, adherent) | 0.649 | 3250 | 0.859 | > 10200 | 0.969 | > 2000 | 0.918 | > 512 | 0.964 | > 100
NCI-H292 (lung adenocarcinoma, adherent) | 0.485 | 904 | 0.638 | 1670 | 0.691 | 485 | 0.898 | > 512 | 0.776 | 48.9
RERF-LC-KJ (lung adenocarcinoma, adherent) | 0.453 | 743 | 0.949 | > 10200 | 0.891 | > 2000 | 0.898 | > 512 | 0.975 | > 100
Hs766T (pancreas, adherent) | 0.638 | 2730 | 0.984 | > 10200 | 0.861 | > 2000 | 0.88 | > 512 | 0.973 | > 100
BFTC-905 (bladder, adherent) | 0.155 | 108 | 0.892 | 9090 | 0.959 | > 2000 | 0.846 | 298 | 0.983 | > 100
COLO-783 (melanoma, adherent) | 0.838 | 10200 | 0.916 | > 10200 | 0.991 | > 2000 | 0.99 | > 512 | 0.99 | > 100
SUIT-2 (pancreas, adherent) | 0.267 | 209 | 0.632 | 1510 | 0.921 | > 2000 | 0.911 | > 512 | 0.985 | > 100
SW756 (cervix, adherent) | 0.439 | 658 | 0.98 | > 10200 | 0.569 | 199 | 0.984 | > 512 | 0.982 | > 100
NCI-H2291 (lung adenocarcinoma, adherent) | 0.915 | > 16000 | 0.984 | > 10200 | 0.968 | > 2000 | 0.984 | > 512 | 0.978 | > 100
COR-L23 (large cell lung carcinoma, adherent) | 0.286 | 254 | 0.934 | > 10200 | 0.916 | > 2000 | 0.973 | > 512 | 0.972 | > 100
G-401 (kidney, adherent) | 0.443 | 687 | 0.899 | > 10200 | 0.984 | > 2000 | 0.735 | 162 | 0.982 | > 100
HT-1197 (bladder, adherent) | 0.596 | 1930 | 0.981 | > 10200 | 0.971 | > 2000 | 0.979 | > 512 | 0.971 | > 100
DMS-53 (small cell lung carcinoma, adherent) | 0.433 | 649 | 0.988 | > 10200 | 0.983 | > 2000 | 0.98 | > 512 | 0.967 | > 100
HCC-56 (large intestine, adherent) | 0.301 | 271 | 0.864 | 9330 | 0.958 | > 2000 | 0.956 | > 512 | 0.974 | > 100
PCI-15A (head and neck, adherent) | 0.429 | 637 | 0.984 | > 10200 | 0.934 | > 2000 | 0.931 | > 512 | 0.952 | > 100
NCI-H650 (lung adenocarcinoma, adherent) | 0.66 | 2930 | 0.916 | > 10200 | 0.986 | > 2000 | 0.903 | > 512 | 0.896 | > 100
SK-N-SH (neuroblastoma, adherent) | 0.108 | < 62.5 | 0.967 | > 10200 | 0.987 | > 2000 | 0.759 | 178 | 0.982 | > 100
KYSE-410 (oesophagus, adherent) | 0.416 | 579 | 0.926 | > 10200 | 0.658 | 355 | 0.817 | 310 | 0.971 | > 100
YAPC (pancreas, adherent) | 0.689 | 3900 | 0.982 | > 10200 | 0.985 | > 2000 | 0.981 | > 512 | 0.983 | > 100

Cell Line | AUC (Mitomycin C) | IC50 (Mitomycin C) [nM] | AUC (NVP-BHG712) | IC50 (NVP-BHG712) [nM] | AUC (Bosutinib) | IC50 (Bosutinib) [nM] | AUC (Midostaurin) | IC50 (Midostaurin) [nM] | AUC (IOX2) | IC50 (IOX2) [nM]
CCF-STTG1 (glioma, adherent) | 0.303 | 279 | 0.867 | 9400 | 0.988 | > 2000 | 0.807 | 265 | 0.98 | > 100
JHH-6 (liver, adherent) | 0.584 | 1700 | 0.957 | > 10200 | 0.957 | > 2000 | 0.934 | > 512 | 0.986 | > 100
OE21 (oesophagus, adherent) | 0.366 | 369 | 0.957 | > 10200 | 0.687 | 515 | 0.794 | 344 | 0.971 | > 100
RCM-1 (large intestine, adherent) | 0.508 | 1050 | 0.964 | > 10200 | 0.934 | > 2000 | 0.923 | > 512 | 0.976 | > 100
CAL-29 (bladder, adherent) | 0.249 | 178 | 0.956 | > 10200 | 0.891 | > 2000 | 0.935 | > 512 | 0.976 | > 100
TYK-nu (ovary, adherent) | 0.201 | 120 | 0.969 | > 10200 | 0.886 | > 2000 | 0.984 | > 512 | 0.849 | 83.3
LK-2 (lung squamous cell carcinoma, adherent) | 0.382 | 485 | 0.968 | > 10200 | 0.979 | > 2000 | 0.814 | 260 | 0.986 | > 100
HCC1428 (breast, adherent) | 0.672 | 3170 | 0.988 | > 10200 | 0.971 | > 2000 | 0.947 | > 512 | 0.969 | > 100
NCI-H2342 (lung adenocarcinoma, adherent) | 0.124 | < 62.5 | 0.986 | > 10200 | 0.941 | > 2000 | 0.683 | 110 | 0.983 | > 100
451Lu (melanoma, adherent) | 0.342 | 372 | 0.876 | 9380 | 0.82 | 1090 | 0.957 | > 512 | 0.985 | > 100
CFPAC-1 (pancreas, adherent) | 0.209 | 120 | 0.977 | > 10200 | 0.983 | > 2000 | 0.873 | > 512 | 0.98 | > 100
CCK-81 (large intestine, adherent) | 0.457 | 768 | 0.894 | > 10200 | 0.899 | > 2000 | 0.984 | > 512 | 0.989 | > 100
NCI-H1693 (lung adenocarcinoma, adherent) | 0.489 | 917 | 0.949 | > 10200 | 0.758 | 1130 | 0.88 | > 512 | 0.973 | > 100
NCI-H1048 (small cell lung carcinoma, adherent) | 0.204 | 150 | 0.872 | 8080 | 0.926 | > 2000 | 0.92 | > 512 | 0.989 | > 100
ASH-3 (thyroid, adherent) | 0.488 | 928 | 0.988 | > 10200 | 0.946 | > 2000 | 0.885 | > 512 | 0.957 | > 100
SiHa (cervix, adherent) | 0.629 | 2410 | 0.987 | > 10200 | 0.986 | > 2000 | 0.974 | > 512 | 0.971 | > 100
SKN (uterus, adherent) | 0.57 | 1620 | 0.982 | > 10200 | 0.884 | > 2000 | 0.735 | 176 | 0.969 | > 100
PA-TU-8988T (pancreas, adherent) | 0.241 | 178 | 0.903 | > 10200 | 0.982 | > 2000 | 0.935 | > 512 | 0.981 | > 100
AN3-CA (endometrium, adherent) | 0.366 | 411 | 0.955 | > 10200 | 0.977 | > 2000 | 0.805 | 288 | 0.983 | > 100
MES-SA (uterus, adherent) | 0.196 | 150 | 0.992 | > 10200 | 0.928 | > 2000 | 0.68 | 93.1 | 0.985 | > 100
LC-1-sq (lung squamous cell carcinoma, adherent) | 0.446 | 693 | 0.972 | > 10200 | 0.825 | 1490 | 0.972 | > 512 | 0.96 | > 100
CHSA0108 (chondrosarcoma, adherent) | 0.738 | 5400 | 0.846 | 9270 | 0.931 | > 2000 | 0.687 | 117 | 0.982 | > 100
OV-90 (ovary, adherent) | 0.315 | 259 | 0.783 | 5640 | 0.955 | > 2000 | 0.913 | > 512 | 0.979 | > 100
OAW-42 (ovary, adherent) | 0.182 | 99.5 | 0.949 | > 10200 | 0.954 | > 2000 | 0.892 | > 512 | 0.984 | > 100
NCI-H2405 (lung adenocarcinoma, adherent) | 0.351 | 368 | 0.845 | 8640 | 0.982 | > 2000 | 0.859 | 499 | 0.984 | > 100
